From PubChem BioAssay AID1963977 (Molecular Pharmacology Branch, DTP, NCI, 2024)
For part of its entries the source gives two or more results. The other results are left out here. The source may hold further records. Values given together repeat one measurement in other runs, samples, wells, individuals or studies.

System: 624824-186-R-J3-PDC multicell spheroids, viability
Test: Anticancer human tumor 624824-186-R-J3-PDC patient-derived colon adenocarcinoma cell line growth inhibition [PI3K]
Conditions: for viability, T/C: stronger effect = lower value
From the text: Combinatorial screen of targeted agents with the PI3K inhibitors inavolisib, alpelisib, duvelisib, and copanlisib in multi-cell type tumor spheroids
A high-throughput screen of multi-cell type tumor spheroids was designed to identify active combinations of targeted small molecules and PI3K pathway inhibitors. Complex spheroids include a stromal component modeled by human endothelial cells (HUVEC) and fibroblasts modeled by human mesenchymal stem cells (MSCs). The concentration ranges selected for each drug and investigational agent were based upon clinically achievable concentrations if the clinical Cmax of the agent was known.
Compounds. The drugs and investigational agents: inavolisib (NSC800729), alpelisib (NSC765974), duvelisib (NSC772469), copanlisib (NSC816437), ipatasertib (NSC767898), afuresertib (NSC778305), talazoparib (NSC767125), sapanisertib (NSC764658), selumetinib (NSC741078), tovorafenib (DAY101, NSC766906), vemurafenib (NSC761431), ravoxertinib (NSC781343), sotorasib (NSC818433), MRTX1133 (NSC 836407), abemaciclib (NSC 768073), palbociclib (NSC758247), venetoclax (NSC 766270), SY5609 (NSC837396), enzalutamide (NSC755605), and darolutamide (NSC825331), were obtained from the National Cancer Institute (NCI) Developmental Therapeutics Program Chemical Repository. The FDA-approved anticancer drug set is available from the NCI Developmental Therapeutics Program. […] The stock solutions were prepared in dimethyl sulfoxide (DMSO, Sigma-Aldrich, St. Louis, MO, cat. D2650) at 800-fold the tested concentration and stored at -70 degrees C prior to their use. All drugs and investigational agents were tested over a range starting from a high concentration at or near the clinical Cmax and decreasing in half-log increments. If the clinical Cmax for an agent had not been determined, the highest concentration tested was 10 microM.
Cell Culture. All cells were maintained in an incubator at 37 degrees C and 5% CO2 with 95% humidity. The PDC lines were cultured according to standard operating procedures established by the NCI PDMR (https://pdmr.cancer.gov/sops/default.htm). All PDCs were thawed and cultured in Matrigel-coated flasks prepared with a working solution of 1X Ham's F-12 nutrient mix, without supplementation (Invitrogen, Waltham, MA, cat. 11765054), 100 U/mL penicillin-streptomycin (Invitrogen, cat. 15140122), and 2.5% Matrigel (Corning Inc., Corning, NY, cat. 354248) for the first three passages. The 354836-022-R-J1-PDC, 475296-252-R-J1-PDC, and 997726-040-R-J2-PDC lines were cultured in 6A media, which includes advanced DMEM/F-12 (Thermo Fisher Scientific, cat. 12634028), 10 mM HEPES (Thermo Fisher Scientific, cat. 15630080), 1X GlutaMAX supplement (Thermo Fisher Scientific, cat. 35050061), 0.1 mg/mL primocin (InvivoGen, San Diego, CA, cat. ant-pm-2), 10% defined fetal bovine serum, heat inactivated (HyClone Laboratories Inc., Logan, UT, cat. SH30070.03HI), 50% L-WRN conditioned media (ATCC, cat. CRL-3276), 1.25 mM N-Acetyl-L-cysteine (Sigma-Aldrich, cat. A9165), 10 mM nicotinamide (Sigma-Aldrich, cat. N0636), 1X B-27 supplement (Thermo Fisher Scientific, cat. 17504044), 1X N-2 supplement (Thermo Fisher Scientific, cat. 17502048), and 10 microM Y-27632 dihydrochloride (Tocris Bioscience, Bristol, United Kingdom, cat. 1254). The 624824-186-R-J2-PDC line was cultured in 6C/Colon 1B media, which includes all 6A media components plus 50 ng/mL human EGF recombinant protein (Thermo Fisher Scientific, cat. PHG0311). […]
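Further: spheroids exposed to agents for seven days before luminescence read.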
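Wherever viability, T/C is given: luminescent signal used as a stand-in for spheroid viability; percent viability relative to DMSO vehicle control wells taken as 100%.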

SMILES: Cn1ncc(Cl)c1-c1cc(C(=O)NC(CN)Cc2cccc(F)c2)sc1Cl (stereo not given)
- viability, T/C (compound alone 10 µM): 39.7, 72.4, 46.3, 50%

SMILES: Cn1ncnc1[C@H]1c2n[nH]c(=O)c3cc(F)cc(c23)N[C@@H]1c1ccc(F)cc1
- viability, T/C (compound alone 0.00316 µM): 90, 96.9, 119, 91.8%

SMILES: CC(Nc1ncnc2nc[nH]c12)c1cc2cccc(Cl)c2c(=O)n1-c1ccccc1 (stereo not given)
- viability, T/C (compound alone 0.1 µM): 98, 97.5, 103, 117, 105, 98.9, 89, 110%

SMILES: CC1(C)CCC(CN2CCN(c3ccc(C(=O)NS(=O)(=O)c4ccc(NCC5CCOCC5)c([N+](=O)[O-])c4)c(Oc4cnc5[nH]ccc5c4)c3)CC2)=C(c2ccc(Cl)cc2)C1
- IC50 (compound alone): 9.3 µM, 8.3 µM, 8.09 µM, > 10 µM
- viability, T/C (compound alone 10 µM): 46.3, 39.6, 38.7, 93.1%
